Source: PubChem BioAssay AID624417 (National Center for Advancing Translational Sciences (NCATS), 2012)
Out of some 410,000 compounds screened, about 6,400 (1.6%) were called active. The inconclusive results got no clear call from the source; some entries with a clear call stand among them for comparison. Calls follow the shape of the dose curve; as a rule, active = well fitted inhibition curve with a large enough effect; inconclusive = small, poorly fitted or top-dose-only effect; inactive = no such curve, though single readings can be large or run the other way. Potencies of inconclusive entries are doubtful fits and often do not repeat.

What follows are molecules tested against Glucagon-like peptide 1 receptor (Homo sapiens) (UniProt P43220) (assay: qHTS of GLP-1 Receptor Inverse Agonists (Inhibition Mode)). Conditions: HEK293 GLP-1R CRE-luciferase, luminescence, 24 h, GLP-1R form is constitutively active; activity change, negative = inhibition: at 38.3 µM (top of the series) unless noted.
Chain of UniProt P43220 (P43220 whole entry, looked up): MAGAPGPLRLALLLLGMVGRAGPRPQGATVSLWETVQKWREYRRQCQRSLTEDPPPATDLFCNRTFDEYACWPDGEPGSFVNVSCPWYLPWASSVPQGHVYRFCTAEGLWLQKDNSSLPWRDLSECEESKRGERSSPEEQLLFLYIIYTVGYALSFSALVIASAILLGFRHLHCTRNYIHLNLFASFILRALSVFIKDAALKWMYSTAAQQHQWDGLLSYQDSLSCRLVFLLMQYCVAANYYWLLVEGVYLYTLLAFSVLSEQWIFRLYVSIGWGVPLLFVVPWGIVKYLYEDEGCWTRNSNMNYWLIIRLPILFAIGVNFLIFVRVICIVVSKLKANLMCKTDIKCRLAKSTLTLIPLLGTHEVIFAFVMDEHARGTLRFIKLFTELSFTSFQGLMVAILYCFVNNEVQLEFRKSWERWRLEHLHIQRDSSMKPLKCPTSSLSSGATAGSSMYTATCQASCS
Method in brief: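 Inverse agonists were sought by their lowering of basal cAMP reporter luciferase output in HEK293 cells stably carrying constitutively active human GLP-1R, after 24 h compound treatment.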
% is scaled to controls: 0 for no effect and ±100 for the full control effect; potency is read from the fitted curve at half-maximal effect; tags tell the direction and shape of the fitted curve.
Also: nearly all actives have a fitted effect of over 55% in size.

Activity change, negative = inhibition, inactive:
CCc1ccc(N2CC34C=CC(O3)C(C(=O)OC)C4C2=O)cc1 (stereo not drawn) 6.93%, CCN(C(=O)CSc1nnnn1C)C1CCCCC1 17.4%, COc1cccc(C2CC(=O)Nc3c2ccc(C)c3C)c1OC (stereo not drawn) -10.4%, CC(=O)N=c1sc2ccccc2n1C 11.7%

Activity change, negative = inhibition, inconclusive:
Fc1ccc(COc2cccc(CNCc3ccncc3)c2)cc1 -33.6% [inhibitor] [at 7.66 µM]

Potency, inconclusive:
CCN1CCN(C(c2ccc(OC)cc2)C(O)C(=O)c2c[nH]c3ccccc23)CC1 (stereo not drawn) 2.82 µM [inhibitor, full curve], COCCNC(=S)N/N=C(\C)c1ccc(OC)cc1 10 µM [inhibitor, single point], COc1ccc(C(=O)NCc2ccc(N3CCN(C(=O)OC(C)(C)C)CC3)cc2)cc1 10 µM [inhibitor, partial curve, poor fit], COc1cc2c(cc1NC(=O)Nc1ccccc1)oc1ccccc12 2 µM [inhibitor, full curve, poor fit], S=C(NCc1ccco1)Nc1cc(Cl)c(Cl)cc1Cl 12.6 µM [inhibitor, single point], Cc1nc(-[n+]2nc(-c3ccncc3)nn2-c2ccccc2)sc1C 2.51 µM [inhibitor, full curve, poor fit], CCOc1ccccc1CNC(=O)c1ccc(CS(=O)Cc2cccc(Cl)c2)o1 (stereo not drawn) 12.6 µM [inhibitor, single point], COc1cc(C(=O)NCC(=O)N/N=C\C(C)=C/c2ccccc2)cc(OC)c1OC 15.8 µM [inhibitor, single point], CCc1cc(Cn2nc(-c3ccccc3)cc2C(=O)NCc2cccs2)on1 7.08 µM [inhibitor, partial curve, poor fit], Cc1ccc(-c2csc3nc(C)n(-n4c(C)ccc4C)c(=O)c23)o1 20 µM [inhibitor, single point], Cc1ccc(NC(=O)CN2C(=O)NC(C)(c3ccc(Cl)cc3)C2=O)cc1 (stereo not drawn) 22.4 µM [inhibitor, single point], COc1cccc(C(=O)Nc2nc(SCc3ccc(Cl)cc3)n[nH]2)c1 11.2 µM [inhibitor, partial curve, poor fit], COc1ccc(S(=O)(=O)c2c(Nc3ccccc3F)sc(C(=O)c3cccc(OC)c3)c2N)cc1 5.62 µM [inhibitor, partial curve, poor fit]
